From the supplement of paper PMC7826260
Some of the results follow. Each Rep nickase domain was tested in vitro on the same pool of single strands for 1 h at 37 °C with 3 µM enzyme; only the middle of the 90-letter strands is printed. A value is the log2 ratio of uncut reads to the pool without enzyme; strong cutting gives strongly negative numbers. There is no active / inactive call. Counts are relative to all reads; where an enzyme cuts many sequences, the uncut ones exceed 0.

The sequences below were run on T1, Rep nickase domain of tomato golden mosaic virus (assay: uncleaved DNA left, log2 of reads against the no-enzyme library (log2 ratio); higher = less cleavage (more negative = more Rep cleavage of the k-mer); sequences stand for … in CTCGTCCG…ACCGGAGA).
T1 sequence (protein, residues 1-124, tag omitted): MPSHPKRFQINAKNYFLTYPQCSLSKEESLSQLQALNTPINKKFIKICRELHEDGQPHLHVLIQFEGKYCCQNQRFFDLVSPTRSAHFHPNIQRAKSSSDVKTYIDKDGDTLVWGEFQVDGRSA
Description: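 A pool of 90-nt single-stranded DNAs with seven random bases just before the constant AC of the nick site (name = the seven bases) was cut by 3 µM recombinant His6-SUMO-tagged Rep nickase domain (300 nM DNA, 50 mM HEPES pH 8.0, 50 mM NaCl, 1 mM MnCl2, 1 h, 37 °C, three replicates). Uncut DNA was amplified and sequenced.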

| Sequence | uncleaved DNA left (log2) |
| --- | --- |
| ACTCTTT | 0.0593 |
| CGGTCGA | -0.11 |
| CGGGAAC | -0.0127 |
| GTGACAT | 0.128 |
| GGTAAAT | 0.00728 |
| CGCCAAC | -0.0623 |
| TTGGCGA | -0.234 |
| ATCCGTA | -0.0513 |
| GCACGCA | -0.0537 |
| CATCAGG | 0.271 |
| GCACATC | -0.0714 |
| AACCTCG | 0.0939 |
| AACTAAG | 0.0412 |
| AATTTCT | -0.188 |
| CCAGACG | 0.0398 |
| GCCTATA | 0.0649 |
| AAATGCT | -3.9 |
| AAGGGGC | -0.0791 |
| GACCCGA | 0.0149 |
| CGTCCTG | -0.178 |

| Sequence | uncleaved DNA left (log2) |
| --- | --- |
| CGTTAGG | 0.0901 |
| CGTATTC | -0.143 |
| TTAAGTG | -0.0481 |
| GAGCCTG | 0.12 |
| AACGTAA | -0.104 |
| AAACCAA | -0.0205 |
| GGATCGC | -0.0855 |
| GCTCAGA | -0.0177 |
| CGGATTG | 0.147 |
| GTAGGAC | 0.0453 |
| TCGAATA | 0.00823 |
| TCCCACC | -0.0898 |
| GATTCGT | -0.0251 |
| GTTACCT | 0.051 |
| ATGGATC | 0.0345 |
| AGTGTGT | -0.0161 |
| TGAGGTT | 0.27 |
| AATGTCG | 0.00969 |
| TCGTCGG | 0.0471 |
| GAATCCT | -1.65 |
